# Test results published in paper PMC4336329 (PLoS ONE, 2015).
# The whole screen tested about 310,000 compounds, of which about 2,200 (0.71%) showed an effect of 50% or more. Effects have a minus sign here. Some of the results follow.
# Biological target: human ether-à-go-go-related gene (hERG) potassium channel (human, UniProt Q12809)
# Assay: primary screen, population patch clamp on CHO cells stably expressing hERG
# Sequence of human ether-à-go-go-related gene (hERG) potassium channel (Q12809 whole entry, looked up): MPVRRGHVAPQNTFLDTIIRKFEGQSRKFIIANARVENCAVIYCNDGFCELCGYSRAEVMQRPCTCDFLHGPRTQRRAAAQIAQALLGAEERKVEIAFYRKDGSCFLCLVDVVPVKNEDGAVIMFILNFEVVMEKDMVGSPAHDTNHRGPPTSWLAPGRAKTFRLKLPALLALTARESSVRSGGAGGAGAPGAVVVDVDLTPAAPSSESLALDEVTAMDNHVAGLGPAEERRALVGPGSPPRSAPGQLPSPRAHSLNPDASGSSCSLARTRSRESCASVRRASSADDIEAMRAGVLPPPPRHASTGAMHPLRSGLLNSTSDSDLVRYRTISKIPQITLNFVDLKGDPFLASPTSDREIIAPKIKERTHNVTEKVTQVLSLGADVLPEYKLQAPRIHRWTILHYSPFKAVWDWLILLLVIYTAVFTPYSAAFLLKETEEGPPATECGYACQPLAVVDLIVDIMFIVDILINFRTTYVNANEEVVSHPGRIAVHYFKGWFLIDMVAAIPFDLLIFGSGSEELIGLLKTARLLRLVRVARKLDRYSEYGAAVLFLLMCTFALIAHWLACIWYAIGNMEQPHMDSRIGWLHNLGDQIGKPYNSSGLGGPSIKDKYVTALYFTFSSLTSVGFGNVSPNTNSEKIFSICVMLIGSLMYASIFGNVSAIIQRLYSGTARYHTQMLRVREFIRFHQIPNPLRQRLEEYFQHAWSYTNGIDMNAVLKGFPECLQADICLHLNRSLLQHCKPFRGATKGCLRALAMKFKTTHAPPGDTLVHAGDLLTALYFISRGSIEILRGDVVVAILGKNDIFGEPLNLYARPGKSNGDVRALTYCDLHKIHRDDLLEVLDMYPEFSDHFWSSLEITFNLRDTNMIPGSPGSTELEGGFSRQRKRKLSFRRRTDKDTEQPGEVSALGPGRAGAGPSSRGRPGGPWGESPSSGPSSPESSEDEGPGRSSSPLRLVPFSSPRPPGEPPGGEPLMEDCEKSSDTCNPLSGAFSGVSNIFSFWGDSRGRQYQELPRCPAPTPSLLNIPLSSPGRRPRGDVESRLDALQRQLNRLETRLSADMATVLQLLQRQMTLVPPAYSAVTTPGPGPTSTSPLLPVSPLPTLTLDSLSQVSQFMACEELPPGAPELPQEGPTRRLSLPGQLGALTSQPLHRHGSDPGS
row,Compound,"hERG current change (%, negative = inhibition) at 1uM"
1,C/C=C/c1cc(CN2CCN(c3ccccc3)CC2)c(O)c(OC)c1,5.36%
2,CCOC(=O)C1=C(C)NC(=O)NC1c1cccc(O)c1 (stereo not shown),17.9%
3,CN(C(=O)COC(=O)c1ccc2[nH]c3c(c2c1)CCCC3)C1CCS(=O)(=O)C1 (stereo not shown),3.09%
4,CCOC(=O)c1cc2c(=O)n3ccccc3nc2n(CCOC)c1=NC(=O)c1c(-c2c(F)cccc2Cl)noc1C,8.75%
5,O=C(c1noc2c1CCCC2)N1CCCC(N2CCN(c3ccccc3F)CC2)C1 (stereo not shown),-1.37%
6,O=C(Nc1ccc(OC(F)(F)F)cc1)N1CCN(c2ccnc3cc(Cl)ccc23)CC1,-4.71%
7,Cn1c2ccccc2c2nnc(SCC(=O)NC3CCCC3)nc21,13.1%
8,CCC(=O)Nc1ccc(S(=O)(=O)NCc2ccco2)cc1,-1.3%
9,O=c1c2cc(Br)ccc2[nH]c(=S)n1Cc1cccnc1,15.6%
10,COc1ccc(CCNC(=O)C(=O)NCC2OCCN2S(=O)(=O)c2cccs2)cc1OC (stereo not shown),3.06%
11,O=C1NN(c2ccccc2)C(=O)C2C1C1C=CC2C12CC2 (stereo not shown),9.05%
12,CCN(CC)CC(O)CN(c1ccccc1)S(=O)(=O)c1ccc2ccccc2c1.Cl (stereo not shown),-78.5%
13,CC(C)(C)[C@H]1C=C(C(=O)N2CCN(Cc3ccccc3)CC2)O[C@@H](OCCCCO)C1,4.2%
14,COc1ccc(CN2CCN(C(=O)c3ccc4nc(N5CCOCC5)sc4c3)CC2)c(OC)c1OC,4.28%
15,O=C(COc1ccccc1[N+](=O)[O-])Nc1cccc(Cl)c1N1CCOCC1,-6.04%
16,O=C(COC(=O)COc1ccccc1F)NCCc1ccc(F)cc1,7.94%
17,O=C(COC(=O)C1=COCCO1)Nc1ccccc1,20.5%
18,CCC(Sc1nc2sc(C(=O)OC)c(C)c2c(=O)n1N)C(=O)NCC1CCCO1 (stereo not shown),-6.36%
19,COC(=O)COc1ccc(S(=O)(=O)Nc2ccccc2C(=O)OC)cc1,7.07%
20,CC(C)(C)c1ccc(C(CC(=O)O)NC(=O)Cc2ccc(Cl)cc2)cc1 (stereo not shown),13.5%
21,COc1ccc(Cc2nc(-c3cccc(C)c3)no2)cc1,-2.93%
22,Cc1ccc(S(=O)(=O)C2(C(=O)Nc3ccc(F)cc3)CC2)cc1,3.69%
23,COc1cccc(OC)c1OCC(O)CN1CCN(c2ccccc2)CC1.Cl (stereo not shown),-1.11%
24,C/C(N)=C(/C#N)C(=O)COC(=O)c1ccccc1C(=O)c1ccc(C)cc1,5.48%
25,CCOc1ccc(C(=O)NCc2ccncc2)cc1,10.5%
26,O=C(O)/C(=C\c1ccc(Br)cc1)c1ccc(S(=O)(=O)N2CCCCC2)s1,8.02%
27,N#CCO/N=C(\c1ccccc1)c1ccncc1,15.2%
28,CCOCCCNc1ccc(-c2ccccc2)nn1,10.5%

row,Compound,"hERG current change (%, negative = inhibition) at 1uM"
1,CCCCOc1ccc(-c2cc(C(=O)NNC(=S)NCC)c3ccccc3n2)cc1,0.45%
2,CC(=O)N1N=C(c2ccc(C)o2)CC1c1cccc(F)c1 (stereo not shown),15.9%
3,Cc1cnc(NC(=O)C(C)N2CCN(C)CC2)s1.O=C(O)C(=O)O (stereo not shown),11.3%
4,C=CCn1c(NC(=O)c2ccco2)nc2ccccc21,13.7%
5,CCCC(=O)Nc1cccc(-c2nc3ccccc3o2)c1,10.5%
6,CCC(=O)c1cn(Cc2ccccc2)c2ccccc12,7.53%
7,CCC(NC(=O)c1cc(COc2cncc(Cl)c2)on1)c1ccncc1 (stereo not shown),14.3%
8,c1ccc(Cc2nnc3sc(-c4ccco4)nn23)cc1,7.98%
9,COc1cccc(CN2CCN(CC(=O)Nc3ccccc3Cl)CC2)c1,-39.6%
10,CC(C)C(=O)N1CCC2(CC1)Oc1ccc(Cl)cc1C(=O)C21CC(c2ccc(Cl)cc2)=NO1 (stereo not shown),7.04%
11,CCN(CC)c1cc(C)c2cc(NC(=O)c3ccccc3OC)ccc2n1,-3%
12,O=C(Nc1ccc2c(c1)OCO2)Nc1ccccn1,9.53%
13,Cc1ccc(-n2nnc3c(=O)n(CC(=O)N4CCOCC4)cnc32)cc1,-3.26%
14,CCC(C)N1CCN(C(=O)COc2ccc3ccccc3c2)CC1.O=C(O)C(=O)O (stereo not shown),-4.41%
15,CC(=O)c1c(O)cc(=O)n(-c2ccccc2)c1-c1ccc(C)cc1,17.7%
16,Brc1cccc(/C=N/Nc2nn[nH]n2)c1,10.9%
17,O=C(C1CCCN(c2ncnc3c2nc2n3CCCCC2)C1)N1CCN(c2ccccc2F)CC1 (stereo not shown),15.5%
18,CCC(C)(C)NC(=O)C(c1ccccc1Cl)N(C(=O)CCC(=O)Nc1cc(C)on1)c1ccc(NC(C)=O)cc1 (stereo not shown),15.8%
19,CC1(C)CC(=O)c2sc(NS(=O)(=O)Cc3ccccc3)nc2C1,10.4%
20,COC(=O)[C@@]12CCCCN1[C@H](c1ccc(-c3ccc(F)cc3)c(OC)c1)[C@@H]1C(=O)N(C)C(=O)[C@@H]12.O=C(O)C(F)(F)F,10.1%
21,C/C(CC(=O)NC(C)(C)C)=N\NC(=O)c1ccco1,4.35%
22,COc1ccc(C(=O)CCC(=O)N2CCN(c3ccc(C)cc3)C(C)C2)cc1 (stereo not shown),27.1%
23,CCOc1ccc2nc(C(C)O)[nH]c2c1 (stereo not shown),6.97%
24,COc1cc(NC(=O)c2ccco2)c(OC)cc1NC(=O)CSc1nnc(-c2cccs2)n1C,-24.7%
25,COc1ccccc1OCCCn1c(=O)oc2ccc(C)cc21,-13.8%
26,CC(=O)N1N=C(c2cccnc2)OC1c1ccc(C(C)C)cc1 (stereo not shown),-9.04%
27,COC(=O)c1cc(NC(=O)CN2CCc3cc4c(cc3C2)OCCCO4)cc(C(=O)OC)c1,-2.38%
